In all, about 310,000 compounds went through this assay and about 2,200 (0.71%) showed an effect of 50% or more. The effect is printed as a negative number. Some of the results follow.

The target of the assay is human ether-à-go-go-related gene (hERG) potassium channel (human, UniProt Q12809). Briefly: primary screen, population patch clamp on CHO cells stably expressing hERG.
Sequence of human ether-à-go-go-related gene (hERG) potassium channel (Q12809 whole entry, looked up): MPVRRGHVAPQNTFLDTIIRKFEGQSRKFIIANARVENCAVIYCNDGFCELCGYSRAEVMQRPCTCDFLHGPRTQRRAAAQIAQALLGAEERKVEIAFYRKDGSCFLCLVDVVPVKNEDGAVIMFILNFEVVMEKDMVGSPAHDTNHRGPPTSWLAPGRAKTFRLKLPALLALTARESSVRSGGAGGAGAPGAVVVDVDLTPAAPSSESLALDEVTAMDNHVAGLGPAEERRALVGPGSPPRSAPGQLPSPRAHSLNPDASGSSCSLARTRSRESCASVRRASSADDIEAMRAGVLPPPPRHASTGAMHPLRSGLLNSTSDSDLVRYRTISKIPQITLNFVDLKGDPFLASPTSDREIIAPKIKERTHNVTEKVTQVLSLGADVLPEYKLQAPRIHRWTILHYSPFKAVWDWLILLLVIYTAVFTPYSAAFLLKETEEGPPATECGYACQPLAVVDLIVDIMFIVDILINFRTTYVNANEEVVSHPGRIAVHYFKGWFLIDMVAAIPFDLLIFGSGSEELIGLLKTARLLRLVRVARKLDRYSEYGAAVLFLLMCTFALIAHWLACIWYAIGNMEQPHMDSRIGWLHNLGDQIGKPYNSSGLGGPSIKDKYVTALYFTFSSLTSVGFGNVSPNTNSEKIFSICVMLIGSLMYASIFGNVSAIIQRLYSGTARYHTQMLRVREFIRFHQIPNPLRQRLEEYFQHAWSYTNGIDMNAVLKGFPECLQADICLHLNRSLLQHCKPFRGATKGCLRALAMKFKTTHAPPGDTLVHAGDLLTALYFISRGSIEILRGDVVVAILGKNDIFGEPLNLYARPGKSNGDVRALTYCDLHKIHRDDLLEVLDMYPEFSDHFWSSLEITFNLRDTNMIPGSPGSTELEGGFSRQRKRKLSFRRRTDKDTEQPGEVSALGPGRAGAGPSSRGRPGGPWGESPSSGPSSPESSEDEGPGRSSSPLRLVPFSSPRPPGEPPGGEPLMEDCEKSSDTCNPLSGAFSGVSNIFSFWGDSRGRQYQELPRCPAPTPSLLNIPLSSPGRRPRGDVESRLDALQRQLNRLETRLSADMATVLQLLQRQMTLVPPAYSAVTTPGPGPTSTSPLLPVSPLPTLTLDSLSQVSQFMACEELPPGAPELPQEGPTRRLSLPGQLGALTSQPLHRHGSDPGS
On to `CCCCNC(=O)CNC(=O)c1nn(-c2ccc(OC)c(Cl)c2)c(=O)c2ccccc12`, for which the “hERG current change (%, negative = inhibition) at 1uM” value is 10.1%.
The figure for `C=CCn1c(O)c(C(CC)=NCCc2c[nH]c3ccccc23)c(=O)[nH]c1=O` is 8.83%; for `Cc1ccc(C(=O)O)cc1NC(=O)c1ccc(Cn2nc(C)c(Cl)c2C)o1` it is 17.4%; for `Cc1cc(N2CCOCC2)n2nc(C)c(-c3ccccc3Cl)c2n1` it is -7.57%.
The figure for `NC1=C([N+](=O)[O-])C(c2ccc3c(c2)OCO3)c2c(c3ccccc3oc2=O)O1` (centres unmarked) is -22.9%; for `CCOc1ccc(N(CC(=O)NC2CCCC2)C(=O)CSc2nnc(COc3ccccc3)o2)cc1` it is 4.73%; for `O=C(CSc1ccc(Cl)cc1)N/N=C/c1ccc([N+](=O)[O-])o1` it is 10.9%.
With `CCOc1ccc(S(=O)(=O)NCCC(=O)OCC(=O)c2ccc[nH]2)cc1` the figure was 16.2%.
With `O=C(NCc1ccco1)c1cnccn1`, the “hERG current change (%, negative = inhibition) at 1uM” value came out at 6.38%.
With `CC(NC(=O)Nc1ccc(F)cc1F)c1ccc2c(c1)OCO2` (centres unmarked) the figure was 5.7%; with `CC1CCN(c2nc(CN3CCCCC3)nc3scc(-c4ccccc4)c23)CC1`, 3.12%; with `O=C1CCC(C(=O)Nc2ccccc2)N1` (centres unmarked), 19.9%.
The figure for `O=C1OC(CO)CN1Cc1ccccc1` (centres unmarked) is 8.04%; for `CCS(=O)(=O)N1CCN(S(=O)(=O)c2ccccc2)CC1.O=C(O)C(=O)O` it is 0.258%; for `C[C@@H]1CCC(=O)N(C[C@@H](C)CC#N)CC1` it is 20%.
The figure for `Cc1ccc(OCC(=O)NNC(=O)Cn2nnc(-c3ccccc3)n2)cc1` is 15.1%; for `Cc1[nH]n(-c2c(Cl)cc(Cl)cc2Cl)c(=O)c1C=Nc1ccc(S(=O)(=O)N2CCOCC2)cc1` it is 2.49%.
On to `CCOc1ccc(C(=O)CCC(=O)Nc2ncccc2O)cc1`, for which the “hERG current change (%, negative = inhibition) at 1uM” value came out at 10.7%.
The figure for `O=C(Cc1ccc(Br)cc1)NCCN1CCOCC1` is 10.2%; for `CCc1ccc2c(c1)c1nc(C)sc1n2CC` it is -1.98%; for `CCN1CCN(C(=O)COc2ccc(S(=O)(=O)N3CCOCC3)cc2C)CC1` it is 15.3%.
The figure for `COc1cc(C2NC(=O)N(C)C(C)=C2C(=O)OCc2ccccc2)cc(Br)c1O` (centres unmarked) is 12%; for `CCN(CC(=O)NCc1ccc(Cl)cc1)C(=O)CSCC(=O)Nc1ccc(OC)cc1` it is -28.8%.
The figure for `Cc1nn(Cc2ccccc2)c(C)c1C(=O)NCc1ccccc1` is 8.88%; for `CCN1CCN(C(=O)c2cn(CC)c3ccc(S(=O)(=O)N(C)C)cc3c2=O)CC1` it is 10%.
Turning to `Cc1c(N/C(=N/S(=O)(=O)c2ccccc2)c2ccc(Cl)cc2)c(=O)n(-c2ccccc2)n1C`, the “hERG current change (%, negative = inhibition) at 1uM” value was determined as 1.87%.
Take `C=CCN=C(NC#N)SCc1ccccc1Cl`: the “hERG current change (%, negative = inhibition) at 1uM” value is 10.6%.
With `CC(Cc1ccccc1)NC(=O)c1ccc([N+](=O)[O-])cc1` (centres unmarked) the figure was 1.18%; with `Cc1onc(-c2ccccc2Cl)c1C(=O)N[C@@H]1C(=O)N2[C@@H]1SC(C)(C)[C@@H]2C(=O)[O-].[Na+]`, 3.5%.
The figure for `COc1ccccc1/C=C1\SC(=S)N(CCC(=O)NC2=NCCS2)C1=O` is 8.45%; for `CCCCc1nc2ccccc2c(N)c1CCC.O=C(O)c1cc([N+](=O)[O-])ccc1Cl` it is -28.7%; for `CCCCC(=O)N(c1ccc(OC)cc1)C1C=CS(=O)(=O)C1` (centres unmarked) it is 9.23%.
With `CCN1C(=O)/C(=C/c2c(C)nn(C)c2C)SC1=S` the figure was -0.212%.
With `COCC(=O)N1CCN(c2ccc([N+](=O)[O-])cc2)CC1`, the “hERG current change (%, negative = inhibition) at 1uM” value was -31.5%.
Turning to `Cc1ccc(CS(=O)(=O)Cc2ccc(C(=O)NC3CCCC3)o2)cc1`, the “hERG current change (%, negative = inhibition) at 1uM” value worked out at 17.2%.
With `Cn1cccc1/C=C1/C(=O)NC(=O)N(Cc2ccccc2)C1=O` the figure was 12.3%.
The figure for `Cl.N=c1sccn1CC(=O)N1N=C(c2ccc(Cl)cc2)CC1c1ccco1` (centres unmarked) is -47.2%; for `COc1ccc(Cl)cc1NC(=O)c1nc2nc(C)cc(C(F)F)n2n1` it is 8.56%; for `O=C(C1CCN(S(=O)(=O)Cc2ccccc2)CC1)N1CCCc2ccccc21` it is 15.3%.
With `Cc1cccc(N2CCN(S(=O)(=O)c3ccc(-c4cc(C)no4)s3)CC2C)c1` (centres unmarked) the figure was 18.6%; with `C=CCNC(=O)CCCCCNS(=O)(=O)c1ccc(OC)cc1`, 5.79%.
Take `O=C(NN1CCOCC1)c1ccccc1F`: the “hERG current change (%, negative = inhibition) at 1uM” value came to 20.3%.
Regarding `Cc1c(C(=O)NC(=S)Nc2ccc(NC(=O)c3cccs3)cc2)oc2ccccc12`, the “hERG current change (%, negative = inhibition) at 1uM” value was 1.04%.
With `Cc1ccccc1OC1C(=O)N(Cc2ccc3c(c2)OCO3)C1c1sccc1C` (centres unmarked) the figure was 11.1%.

The values are drawn from PMC4336329 (PLoS ONE, 2015).
